B1: BMS3h-56-269-IgG1*Fc fusion polypeptide (Fc fusion)
chain: EVQLLESGGGLVQPGGSLRLSCAASGFTFRDYEMWWVRQAPGKGLERVSAINPQGTRTYYADSVKGRFTISRDNSKNTLYLQMNSLRAEDTAVYYCAKLPFRFSDRGQGTLVTVSSAST[human IgG1 Fc with changes not given here]
B2: BMS3h-56-269-IgG4 Fc fusion polypeptide (Fc fusion)
chain: EVQLLESGGGLVQPGGSLRLSCAASGFTFRDYEMWWVRQAPGKGLERVSAINPQGTRTYYADSVKGRFTISRDNSKNTLYLQMNSLRAEDTAVYYCAKLPFRFSDRGQGTLVTVSSAST[human IgG4 Fc with S228P (EU numbers) not given here]

Target: human CD40 (human, UniProt P25942 21-277)
UniProt P25942, sequence (P25942 21-277 limits assumed): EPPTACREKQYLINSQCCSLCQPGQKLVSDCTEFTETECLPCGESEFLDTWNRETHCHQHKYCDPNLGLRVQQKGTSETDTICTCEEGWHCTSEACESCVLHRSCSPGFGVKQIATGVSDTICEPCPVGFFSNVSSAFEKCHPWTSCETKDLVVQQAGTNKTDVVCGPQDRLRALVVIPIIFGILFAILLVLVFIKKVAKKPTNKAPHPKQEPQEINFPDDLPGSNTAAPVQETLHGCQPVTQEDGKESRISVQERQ
Assay: cell-based or functional assay

Binder | CHO-hCD40L-driven DC Activation IL-6 EC50 [nM] | CHO-hCD40L-driven DC Activation IL-12 EC50 [nM] | CHO-hCD40L-driven DC Activation TNF EC50 [nM] | CHO-hCD40L-driven Human B Cell Proliferation EC50 [nM] | T-B cell MLR EC50 [nM] | hIZCD40L-driven Human B Cell Proliferation EC50 [nM]
B1 | 0.15 | 0.14 | 0.27 | 0.25 | 0.53 | 0.025
B2 | 0.09 | 0.092 | 0.16 | 0.27 | 0.52 | 0.028

From patent publication US20200199244A1 (published 2020)
